Whole data set: some 33,000 sequences, median “E-score (-0.5 to 0.5)” near -0.04, cut for the highest 2% near 0.36. Some of the results follow.
target: T1, Hmlalpha2 (UniProt P0CY09); experiment: PBM E-score (8-mer binding enrichment) (E-score (-0.5 to 0.5)); higher = stronger / more preferred TF binding; most listed sequences are background and not binding sites; conditions: protein concentration: 200 nM; construct: GST-full length
T1 sequence: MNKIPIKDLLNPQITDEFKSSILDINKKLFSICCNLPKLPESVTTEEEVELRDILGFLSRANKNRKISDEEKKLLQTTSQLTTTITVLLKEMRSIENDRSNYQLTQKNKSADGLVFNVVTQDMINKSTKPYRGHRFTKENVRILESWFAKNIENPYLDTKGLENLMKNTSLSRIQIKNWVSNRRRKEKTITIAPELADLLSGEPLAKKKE
Method in brief: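 Yeast transcription factors carrying a GST tag, as full-length proteins or DNA-binding domains, were produced by PURExpress in vitro transcription/translation. About 100-200 nM protein was applied to universal all-10-mer Agilent arrays, double-stranded by primer extension on fresh or once-stripped slides. Bound protein was detected with fluorescent anti-GST, and scans were normalised with masliner. The Universal PBM Analysis Suite gave each ungapped eight-base word, pooled with its reverse complement, an E-score, a modified Wilcoxon-Mann-Whitney statistic.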

Sequence | PBM E-score
AGGGGGAG | -0.384
ACTGAAGA | -0.0546
ATCTGAAT | 0.059
CCCGGCGC | -0.358
CCGTTGCC | -0.229
ATCTGCGG | -0.0808
ACCAATTG | -0.0218
CTCACAGC | -0.15
CACCGAAA | 0.0638
AAATCCTA | 0.0616
ATCCCCAG | -0.255
ACGCCTCC | -0.183
AGAACCGG | -0.107
ACCCGACG | -0.218
CATAGGAG | -0.00675
GCGCCTAA | -0.0972
ACTAACCA | 0.215
AGAGATTA | 0.0004
AGTCCATA | -0.174
AATCTTAC | 0.199
CGGCAGCC | -0.341
ACTCGGCT | -0.252
GATCCGAC | -0.0751
CATGGTGG | -0.00749
CGTATTCC | 0.288

Sequence | PBM E-score
GCAGACCC | -0.322
AAGCACAT | 0.111
CTTTCCAA | -0.0704
AGACGTCA | -0.0886
AACTCGGA | -0.168
CACGAGCC | -0.0745
AAGTTTGA | -0.0014
AGCTTGCA | -0.0594
AGTCTTAC | 0.0662
ACGTCCGA | -0.102
AAGATGTC | 0.0311
AATCGTGT | 0.406
AACGCACG | 0.243
GAATCTGA | -0.03
TCACACAA | 0.23
ACAATTTA | 0.173
GGCAGCAA | -0.0543
AATCCCGG | -0.228
GGCCGGCC | -0.165
ATGCGACA | 0.183
ACACCCTC | -0.155
CTTCTGCA | -0.0586
GCGAACGA | -0.0916
CTCCAGGC | -0.185
CTTGCGGC | -0.273

Sequence | PBM E-score
CCCTATCA | -0.192
ACCTATGA | -0.0629
ACAATTGT | 0.0794
AACCACTC | -0.0151
AGTAACCA | -0.0197
CGAGCGAC | -0.062
AAGCATCT | -0.178
AACTAACA | 0.357
AATATCCG | 0.0481
GTCAGTAA | 0.133
AGAGCTAT | 0.0171
ACCGGAAG | -0.0142
CATCCCTA | -0.0548
CCTACTGC | -0.175
GTCTACAC | 0.364
CGCTCTAG | -0.236
AGGTTCCC | -0.16
CAGGACGA | -0.0247
AAACTGCA | -0.0705
ACGAGAAT | 0.0508
CAGTATTA | 0.149
AATTGACC | 0.0347
CTATCCCC | -0.345
CGCACTAG | -0.0882
AACATCCC | 0.0414

Sequence | PBM E-score
GGGACGCA | -0.237
CAACCTAC | -0.00578
AAGTAGGG | -0.0271
AACTTTTC | 0.117
AACTGGGC | -0.236
AGGGCCGG | -0.355
GTGCAGCA | -0.284
CATGGGCA | -0.149
AATTCACG | 0.076
CCCGTGGC | -0.271
GCCACCTA | -0.151
AATCCAAA | -0.0592
GCAAGTGA | -0.0238
TAGGACAA | 0.0501
AGGTTACA | 0.14
GCTGTTCA | 0.167
GAATACAC | 0.451
ACAGAATA | 0.189
CCGGGGAC | -0.351
GTCTATCA | 0.0262
ACCTCGAA | -0.018
ACAGGAAA | 0.0963
ACATGATA | 0.435
ATTAGCCA | -0.103
ACATTACC | 0.162

Sequence | PBM E-score
ACGTAGCC | 0.00953
ATTTAAGA | 0.0498
AAGGTGTG | -0.0151
GGGCTTAC | -0.0904
CCCCTCAA | -0.16
ACAGGGCT | 0.0949
GTACCCCA | -0.15
CTACGTCC | 0.0361
TCCCAAGA | -0.123
GTAATGCA | 0.257
GTGATGAA | -0.0518
GACCGGCA | -0.203
ACCTACAC | 0.278
GTAACGCA | 0.246
CCAGAGTC | -0.0848
ATTCAGTA | 0.137
ACACGGGT | 0.391
CCAGCTAA | -0.128
ATGTCTTA | 0.173
CGAACGGA | -0.0141
AATAATGT | 0.247
CACATGAC | 0.267
AAAAGCTG | -0.0129
ACAAACAT | 0.305
ATAGTGAA | 0.08

Sequence | PBM E-score
CCCGAGCA | -0.262
CGGACAAC | 0.067
GAGTACAA | 0.227
CATACCCG | -0.117
GACATGGC | 0.224
GGAATCAA | -0.111
ACACGCCC | 0.371
CCAAGTGC | -0.171
GACCCGGA | -0.173
AGAACACG | 0.331
AACGCGTA | 0.359
TGCTGGAA | 0.123
GGCCGAGA | -0.13
ACGCCAAC | 0.0759
ACCTTGCC | -0.128
GTTACTGA | 0.171
CAACACAG | 0.307
GGCGTTGA | 0.00653
CGGTTGAG | 0.00951
GAGTCGCC | -0.317
GGTACTGA | -0.195
ATGTGCGG | 0.0226
ACTATTCC | -0.0557
CGATTTAG | 0.0544
GGCACTAC | -0.121

Sequence | PBM E-score
AAGTCGGT | -0.242
GTTCGTTA | 0.176
GCGCTAAA | -0.0585
CCCTTGGC | -0.35
AAATAGAA | -0.0961
GTCTGGGA | -0.0701
CGAGTAAA | 0.285
GGGTAACC | -0.226
AAATATTC | 0.0676
AGCGGCAC | -0.201
CTAGGCTA | -0.262
AATCGTAT | 0.141
CATGCAGA | 0.191
AGGTGTAG | 0.0925
CGCGTTTC | 0.0651
GATATTAC | 0.268
AGCGGTGC | -0.131
CCAGCCCA | -0.228
CCTGAGGC | -0.223
CAAACGAC | 0.0273
AAAGCGTG | 0.0952
AGGGCGAA | -0.28
GATCGCCA | -0.172
TGTCGGAA | -0.00095
GACCGGAA | -0.179

Sequence | PBM E-score
CATCCATG | 0.154
GGGAAACA | 0.0668
CCGAACGA | -0.153
AGCCCGCG | -0.25
ATTTTTTA | 0.231
AATGTATG | 0.235
ACCCGTCT | -0.0615
TACTAAAA | 0.0793
TCCTCACA | 0.0414
ACGGAGAG | -0.0706
GAGAGTGA | -0.212
AAATGTCA | 0.148
CGGAATAC | 0.292
ACACTCTA | 0.199
AGGAAGAG | -0.214
CATCCTAG | -0.208
AGGTCTCA | -0.0741
ATCGTACA | 0.21
ACTAGTAG | 0.108
AGAACGAT | 0.025
CTTCGACA | 0.213
ATGCGCAC | -0.0855
GACACCTC | -0.112
CACTCTTA | 0.071
ACTCCAGA | -0.106

Sequence | PBM E-score
GCGTGTCA | 0.382
GCCCGGGC | -0.059
CTTGAAAC | -0.111
AACACCCG | 0.112
AATTTTTA | 0.162
AATTAGGA | -0.0899
CCCGCAAG | -0.358
ACACCGCA | -0.1
TGAGTGCA | -0.0859
AAGAAGGA | -0.0215
AAGGATAT | 0.102
GAGTCAAC | 0.0855
ATTAAGGG | -0.0683
CGTTTTTC | -0.0177
CCGCAGAC | -0.174
GACACCGC | -0.118
ATAAGTAC | 0.125
ACAGAGGC | -0.088
CCAAGGCG | -0.124
AAGATGAC | 0.0944
CAATCACC | -0.045
GGAAGTGA | 0.0916
AGATTGAG | 0.0255
CAAAACGC | 0.122
CGCGCGCC | -0.0121

Sequence | PBM E-score
ACTAAATC | -0.0181
AAAGATGA | 0.187
CAGTATAG | -0.0484
CACACGGC | 0.116
GCAATTGA | 0.138
AATGAACT | 0.0494
TCATCCAA | -0.0472
GCGGGAGA | -0.354
CTGTTAGC | -0.243
CGCGGACA | 0.131
CGTGTTTA | 0.436
GCCAAGGA | -0.128
AACGGGGA | -0.064
CGCTTTAC | 0.321
GCCTGCGA | -0.197
AATTTAAA | 0.083
GCTTGGAA | -0.157
AGGTAATG | 0.226
CCTGGCCG | -0.146
ACACTTCG | 0.071
CACAGAGG | 0.0512
GGACCTAC | -0.0877
CCTATGCA | 0.0135
AAATTTCT | 0.0893
ACGACCAA | 0.0834

Sequence | PBM E-score
CTCGTGAC | -0.0519
CAGAAAAA | 0.0571
CACCTACC | -0.139
ACACCGCT | 0.147
CGGGTTTA | -0.0628
AGCGGGGA | -0.24
GGGCTAAA | -0.168
ATCTCGAG | -0.137
CATTCTAG | 0.0286
GCTAGGAA | -0.161
AGTGCTCG | -0.187
CCTACGCG | 0.107
CCAACAGA | -0.17
AGAGGCAA | -0.122
GGAGGCCA | -0.368
GAGCAATC | 0.00584
GCCCCATA | -0.309
ACCTTCTA | -0.00972
ACACGTAC | 0.347
AGAGGCGA | -0.226
CAACGGTC | -0.0538
AGCGATAA | -0.187
GGGTGGTA | -0.159
CGTTGAAC | 0.111
ACAGGCCT | 0.0133

Sequence | PBM E-score
CGTAACAC | 0.325
CTTAGAGC | -0.105
AGCTTCCA | -0.238
ACAGAGGT | 0.133
CCAACTTC | -0.151
GACCAGTA | -0.11
ACCCCCAG | -0.321
GTGAATTA | 0.284
GCTTCCGA | 0.0444
CTCTGTAA | 0.195
ATATGGTG | 0.0211
ATCTGCCG | -0.057
CATTCGGA | 0.108
CCATCCAA | 0.0276
CGGGGTAA | -0.0141
ACAATTTC | -0.0632
ACCTGGTC | -0.0932
CGTGCTAC | -0.058
CGTTGTTC | 0.0877
CAAGTAAA | 0.316
CTGGTAGA | -0.0921
CCACACGC | 0.142
GACCACGC | -0.0445
TCTCGCCA | -0.219
GACAGCTA | -0.0274

Sequence | PBM E-score
ATGAGTCG | -0.0768
AAACCAAG | 0.157
CCCGCGGA | -0.241
ATTCTGGG | -0.173
CGCATAAG | -0.0319
AAGATACG | 0.116
AGTTGCTG | -0.0335
CATACTCC | 0.0887
GCTGAAAC | 0.12
ACGGGGCA | -0.218
AGACTCGC | -0.19
AATGCTGG | 0.0702
CATATTAC | 0.303
AATTACTA | 0.257
AATTGCTA | -0.0161
CTCCTCCC | -0.306
CCTTACGC | 0.188
ACCCCCGT | -0.277
CGATACCG | -0.263
AAGTAGGA | 0.145
ACAGGTTC | -0.0405
CCCATCGA | -0.126
CGATATGA | -0.152
GTAAGTGA | 0.147
ACTTGCTA | 0.13

Sequence | PBM E-score
CATTAAGA | 0.0351
GGGCTCTA | -0.128
ACATAAAG | 0.254
AGCAGCCC | -0.14
TATGCAGA | -0.0326
ATGCACAG | -0.0148
CAGTCAAC | -0.0179
AAAACAGG | -0.0074
AGCCTGAG | -0.242
CAGTTTTC | -0.053
AATGTCAA | 0.182
AGACAACC | 0.0887
GGTCGGAA | -0.0178
AGGACGTA | 0.0452
ACCAGGTC | -0.168
AGACGAAC | 0.094
CTCTACAC | 0.368
ATCACACC | -0.0635
CATGTGGA | 0.144
